# “And” between values parts separate entries of the source, which are not always exact repeats. Equal entries are not always repeated. Some compounds were tested as several samples or in several runs, with calls that do not always agree. The source made the active and inactive calls. Unless noted, the call rests on the fitted dose curve; in most records, active means well fitted curve in the direction sought with a large enough effect in the repeat runs; inconclusive means weak or mixed curves; inactive means no such curve, though single readings can be large; an effect the other way counts as inactive or inconclusive.
# How the values were obtained:
# [1] = qHTS assay to identify small molecule antagonists of the androgen receptor (AR) signaling pathway using the MDA cell line - cell viability counter screen (AID 743041; further: nearly all actives have a fitted effect of over 45% in size); details: MDA-kb2 viability, CellTiter-Fluor, 16 h, cells co-treated with R1881 androgen agonist; viability change, negative = cytotoxic: at 70.3 µM (top of the series) unless noted
# In short: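 MDA-kb2 AR-luc cells (MMTV-luciferase, AR/GR responsive) treated with compounds plus R1881 agonist for 16 h at 37C. CellTiter-Fluor added at 15.5 h; fluorescence read after 30 min in the same wells.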
# [2] = qHTS assay to identify small molecule antagonists of the thyroid receptor (TR) signaling pathway - cell viability counter screen (AID 743064); details: GH3.TRE-Luc viability, CellTiter-Fluor, 24 h; activity change, negative = cytotoxic: at 70.3 µM (top of the series); further: nearly all actives have a fitted effect of over 50% in size
# In short: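 Rat GH3 pituitary tumor cells stably expressing two TR response elements driving luciferase were plated, rested 4 h, then dosed with library compounds and T3 (1 nM final). After 23.5 h at 37 °C, CellTiter-Fluor was added for 30 min and fluorescence recorded.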
# [3] = qHTS assay to identify small molecule antagonists of the thyroid receptor (TR) signaling pathway (AID 743065); further: nearly all actives have a fitted effect of over 55% in size
# In short: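 GH3.TRE-Luc rat pituitary cells (two TREs driving luciferase) were dosed with compound, then stimulated with 1 nM T3 (final) for 23.5 h at 37 C. ONE-Glo luminescence was the read-out, with CellTiter-Fluor fluorescence as the cytotoxicity counter-screen.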
# [4] = system: thyroid hormone receptor (rat, GH3 cells); assay: qHTS assay to identify small molecule agonists of the thyroid receptor (TR) signaling pathway (AID 743066; calls by dose curve; on activation: on the % scale 0 is the no-effect control and ±100 the full control effect); details: GH3.TRE-Luc cells, TR agonist luciferase, 24 h; activation: at 83.9 µM (top of the series) unless noted
# [5] = biological target: Estrogen receptor (Homo sapiens) (UniProt P03372); assay: qHTS assay to identify small molecule antagonists of the estrogen receptor alpha (ER-alpha) signaling pathway (AID 743069; active means well fitted curve in the direction sought with a large enough effect in the signal ratio in the repeat runs, not every such curve was filed as active; inconclusive means weak or mixed curves, or effect the other way; inactive means no such curve, though single readings can be large or run the other way; the % refers to the signal ratio); details: HEK293 ER-alpha-UAS-bla, beta-lactamase ratio, antagonist mode; activity, negative = inhibition: at 69.4 µM (top of the series)
# In short: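 HEK293 ER-alpha-UAS-bla GripTite cells, held overnight in 2% charcoal-stripped FBS, 5,000 cells/well, preincubated 4 h, then compound plus 17beta-estradiol for 18 h at 37C. Beta-lactamase read by LiveBLAzer B/G FRET substrate, 2 h at room temperature.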
# [6] = qHTS assay to identify small molecule antagonists of the estrogen receptor alpha (ER-alpha) signaling pathway - cell viability counter screen (AID 743074; calls by dose curve;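 further: HEK293 cells carrying ER-alpha-UAS-bla reporter stimulated with 17beta-estradiol; nearly all actives have a fitted effect of over 45% in size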)
# [7] = biological target: Estrogen receptor (Homo sapiens) (UniProt P03372); assay: qHTS assay to identify small molecule agonists of the estrogen receptor alpha (ER-alpha) signaling pathway (AID 743075; calls by dose curve; on activation: on the % scale 0 is the no-effect control and ±100 the full control effect); details: HEK293 ER-alpha-UAS-bla, beta-lactamase FRET ratio, 18 h; activation: at 70.1 µM (top of the series)
# [8] = biological target: Estrogen receptor (Homo sapiens) (UniProt P03372); assay: qHTS assay to identify small molecule agonists of the estrogen receptor alpha (ER-alpha) signaling pathway using the BG1 cell line (AID 743079); details: BG1Luc4E2 cells, ERE-luciferase agonist, 22 h; activation: at 70.3 µM (top of the series) unless noted; further: nearly all actives have a fitted effect of over 20% in size
# [9] = qHTS assay to identify small molecule antagonists of the estrogen receptor alpha (ER-alpha) signaling pathway using the BG1 cell line (AID 743080; calls by dose curve;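 further: BG1 cells stimulated with 17beta-estradiol alongside compound; nearly all actives have a fitted effect of over 25% in size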); details: BG1Luc4E2 ERE-luciferase antagonist mode, luminescence; activity change, negative = inhibition: at 70.3 µM (top of the series) unless noted
# In short: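 After 5 days in phenol-red-free 10% charcoal-stripped FBS medium, BG1-Luc-4E2 cells were seeded, left 24 h at 37 C, co-treated with compounds and 17beta-estradiol for 21.5 h, then assayed for viability and luciferase.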
# [10] = qHTS assay to identify small molecule antagonists of the estrogen receptor alpha (ER-alpha) signaling pathway using the BG1 cell line - cell viability counter screen (AID 743081);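 further: compound given together with 17beta-estradiol as the ER stimulus; nearly all actives have a fitted effect of over 45% in size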
# [11] = qHTS assay to identify aromatase inhibitors - cell viability counter screen (AID 743084);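 further: cells stimulated with testosterone during compound exposure; nearly all actives have a fitted effect of over 55% in size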
# [12] = biological target: Peroxisome proliferator-activated receptor gamma (Homo sapiens) (UniProt P37231); assay: qHTS assay to identify small molecule agonists of the peroxisome proliferator-activated receptor gamma (PPARg) signaling pathway (AID 743094; active means well fitted activation curve with a large enough effect in the signal ratio in the repeat runs, not every such curve was filed as active; inconclusive means weak or mixed curves, or effect the other way; inactive means no such curve, though single readings can be large or run the other way; the % refers to the signal ratio; on activation: on the % scale 0 is the no-effect control and ±100 the full control effect); details: HEK293H PPARg-UAS-bla, beta-lactamase FRET ratio, 17 h; activation: at 57 µM (top of the series) unless noted
# In short: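 Beta-lactamase FRET fluorescence was the read-out after a 1 h room-temperature substrate step, following 17 h compound treatment at 37C of HEK293H cells expressing a UAS-driven bla reporter responsive to PPARg.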
# [13] = biological target: Peroxisome proliferator-activated receptor gamma (Homo sapiens) (UniProt P37231); assay: qHTS assay to identify small molecule antagonists of the peroxisome proliferator-activated receptor gamma (PPARg) signaling pathway (AID 743191; calls by dose curve; further: nearly all actives have a fitted effect of over 30% in size; on ratio activity, negative = inhibition: on the % scale 0 is the no-effect control and ±100 the full control effect); details: HEK293H PPARg-UAS-bla, beta-lactamase ratio, antagonist, 17 h; ratio activity, negative = inhibition: at 62.6 µM (top of the series) unless noted
# In short: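 GeneBLAzer PPARg UAS-bla HEK293H cells, 5 h post-plating, exposed to compounds 17 h at 37C. LiveBLAzer B/G FRET substrate added for 1 h at room temperature; beta-lactamase reporter read by fluorescence intensity.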
# [14] = qHTS assay to identify small molecule that activate the aryl hydrocarbon receptor (AhR) signaling pathway - cell viability counter screen (AID 743086); further: nearly all actives have a fitted effect of over 45% in size
# In short: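 HepG2-AhR-luc (HG2L7.5c1) cells, 4000/well, treated 24 h at 37 C with compound; viability measured as CellTiter-Fluor fluorescence after 30 min in the same wells as the luciferase read.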
# Aromatase (Homo sapiens) = Aromatase (Homo sapiens) (UniProt P11511); assay: qHTS assay to identify aromatase inhibitors (AID 743083); further: nearly all actives have a fitted effect of over 55% in size
# [15] = biological target: Aryl hydrocarbon receptor (Homo sapiens) (UniProt P35869); assay: qHTS assay to identify small molecule that activate the aryl hydrocarbon receptor (AhR) signaling pathway (AID 743085); further: nearly all actives have a fitted effect of over 15% in size
# In short: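 Compounds were tested in HepG2 hepatocellular carcinoma cells harbouring a stably integrated luciferase gene under control of 20 DREs. Increased reporter signal after 24 h treatment at 37C was taken as AhR activation.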
# Potency means the concentration at half of the fitted maximal effect; tags describe the fitted curve by direction and shape or compound fluorescence and quenching.
# UniProt P37231, sequence (P37231 whole entry, looked up): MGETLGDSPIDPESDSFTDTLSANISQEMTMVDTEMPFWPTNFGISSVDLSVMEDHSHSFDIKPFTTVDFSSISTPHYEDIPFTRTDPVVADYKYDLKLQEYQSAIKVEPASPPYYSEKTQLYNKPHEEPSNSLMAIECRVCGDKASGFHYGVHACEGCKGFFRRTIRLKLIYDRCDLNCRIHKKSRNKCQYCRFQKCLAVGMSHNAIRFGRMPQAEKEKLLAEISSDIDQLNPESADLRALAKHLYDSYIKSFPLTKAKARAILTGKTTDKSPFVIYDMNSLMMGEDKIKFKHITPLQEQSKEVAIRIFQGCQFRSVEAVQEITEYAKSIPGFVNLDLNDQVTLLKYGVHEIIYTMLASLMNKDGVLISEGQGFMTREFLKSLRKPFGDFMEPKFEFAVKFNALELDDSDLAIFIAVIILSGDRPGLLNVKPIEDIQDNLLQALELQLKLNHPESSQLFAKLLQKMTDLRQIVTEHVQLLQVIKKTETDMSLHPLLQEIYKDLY
# UniProt P03372, sequence (P03372 whole entry, looked up): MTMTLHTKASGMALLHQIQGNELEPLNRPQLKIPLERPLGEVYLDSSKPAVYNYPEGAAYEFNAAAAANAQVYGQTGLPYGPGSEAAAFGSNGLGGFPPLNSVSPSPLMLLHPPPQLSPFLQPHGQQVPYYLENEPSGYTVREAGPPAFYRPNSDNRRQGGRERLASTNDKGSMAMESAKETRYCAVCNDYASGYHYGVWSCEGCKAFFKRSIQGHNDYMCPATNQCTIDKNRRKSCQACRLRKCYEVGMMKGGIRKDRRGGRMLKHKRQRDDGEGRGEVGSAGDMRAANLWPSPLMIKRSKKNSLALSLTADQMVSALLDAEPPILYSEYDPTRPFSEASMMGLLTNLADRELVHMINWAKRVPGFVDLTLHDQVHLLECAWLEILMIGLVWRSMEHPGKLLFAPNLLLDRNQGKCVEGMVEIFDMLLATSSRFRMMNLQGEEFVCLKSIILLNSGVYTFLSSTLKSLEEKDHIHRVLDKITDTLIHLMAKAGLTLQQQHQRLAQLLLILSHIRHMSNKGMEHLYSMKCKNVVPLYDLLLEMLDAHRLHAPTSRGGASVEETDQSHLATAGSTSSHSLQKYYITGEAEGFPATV
# UniProt P11511, sequence (P11511 whole entry, looked up): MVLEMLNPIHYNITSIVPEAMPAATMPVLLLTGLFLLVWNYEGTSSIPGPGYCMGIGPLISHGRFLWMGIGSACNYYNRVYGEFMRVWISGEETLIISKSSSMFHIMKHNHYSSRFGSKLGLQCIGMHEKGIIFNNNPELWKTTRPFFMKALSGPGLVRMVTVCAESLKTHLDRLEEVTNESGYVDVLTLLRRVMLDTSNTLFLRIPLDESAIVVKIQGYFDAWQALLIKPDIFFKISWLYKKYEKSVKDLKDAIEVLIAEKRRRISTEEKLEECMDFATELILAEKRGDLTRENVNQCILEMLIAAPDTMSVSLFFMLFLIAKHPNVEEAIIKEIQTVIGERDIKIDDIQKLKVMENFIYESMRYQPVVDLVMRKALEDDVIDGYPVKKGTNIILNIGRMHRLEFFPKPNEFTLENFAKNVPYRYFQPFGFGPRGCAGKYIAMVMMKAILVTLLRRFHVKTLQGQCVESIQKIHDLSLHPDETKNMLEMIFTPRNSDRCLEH
# UniProt P35869, sequence (P35869 whole entry, looked up): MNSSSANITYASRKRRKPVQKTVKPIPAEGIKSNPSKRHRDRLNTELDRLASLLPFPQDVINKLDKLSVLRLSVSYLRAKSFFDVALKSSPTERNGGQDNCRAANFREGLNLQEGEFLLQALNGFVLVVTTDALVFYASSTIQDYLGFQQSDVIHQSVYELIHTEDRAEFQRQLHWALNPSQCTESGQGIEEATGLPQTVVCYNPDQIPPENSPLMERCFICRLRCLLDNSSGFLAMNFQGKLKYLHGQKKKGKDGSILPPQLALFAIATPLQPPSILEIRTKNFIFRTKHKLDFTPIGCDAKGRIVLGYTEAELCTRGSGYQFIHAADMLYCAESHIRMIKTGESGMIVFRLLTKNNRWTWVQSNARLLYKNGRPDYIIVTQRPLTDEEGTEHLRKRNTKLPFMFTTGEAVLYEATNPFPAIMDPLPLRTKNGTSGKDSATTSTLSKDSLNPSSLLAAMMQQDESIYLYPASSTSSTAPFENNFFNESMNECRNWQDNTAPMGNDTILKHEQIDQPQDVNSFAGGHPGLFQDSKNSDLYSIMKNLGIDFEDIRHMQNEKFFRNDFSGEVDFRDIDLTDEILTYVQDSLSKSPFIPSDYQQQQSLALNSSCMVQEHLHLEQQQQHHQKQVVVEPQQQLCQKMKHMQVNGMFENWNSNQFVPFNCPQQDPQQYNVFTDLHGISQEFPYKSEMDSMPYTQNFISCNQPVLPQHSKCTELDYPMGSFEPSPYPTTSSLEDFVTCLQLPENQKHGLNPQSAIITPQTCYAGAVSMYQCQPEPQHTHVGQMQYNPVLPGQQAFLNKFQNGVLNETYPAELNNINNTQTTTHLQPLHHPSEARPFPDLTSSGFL
compound,measurement,setting,value
O=C1c2ccccc2C(=O)N1SC(Cl)(Cl)Cl,Potency,[1],"inconclusive: 17 µM [cytotoxic, partial curve]"
same,Potency,[2],active: 4.27 µM and active: 2.17 µM
same,Potency,[3],active: 2.4 µM and active: 1.54 µM
same,Potency,[4],"inconclusive: 15.1 µM [inhibitor, partial curve, poor fit] and inconclusive: 7.7 µM [inhibitor, partial curve, poor fit]"
same,Potency,[5],inconclusive: 48.3 µM [partial curve] and active: 24.5 µM [inconclusive]
same,Potency,[6],active: 21.6 µM
same,Potency,[7],inconclusive: 49 µM [activator]
same,Potency,[8],"inconclusive: 30.2 µM [inhibitor, partial curve] and inconclusive: 30.6 µM [inhibitor, partial curve]"
same,Potency,[9],"inconclusive: 26.9 µM [falling, partial curve] and inconclusive: 27.3 µM [falling, partial curve]"
same,Potency,[10],"inconclusive: 60.3 µM [cytotoxic, partial curve, poor fit] and inconclusive: 68.6 µM [cytotoxic]"
same,Potency,[11],"inconclusive: 1.35 µM [cytotoxic, full curve]"
same,activation,[12],inconclusive: -7.75%
same,Potency,[13],"inconclusive: 43 µM [rising, partial curve] and inconclusive: 6.16 µM [rising, partial curve]"
CCc1cc(OC)c(C[C@H](C)N)cc1OC,Potency,[1],"inconclusive: 40.2 µM [cytotoxic, partial curve]"
same,Potency,[2],"inconclusive: 20.1 µM [cytotoxic, full curve]"
same,Potency,[3],active: 31.9 µM
same,Potency,[10],"inconclusive: 28.4 µM [cytotoxic, partial curve]"
same,Potency,[14],active: 63.7 µM
same,"ratio activity, negative = inhibition",[13],inconclusive: 3.5% [at 81.1 µM]
COP(=S)(NC(C)C)Oc1ccc(C)cc1[N+](=O)[O-] (stereo not given),Potency,[1],"inconclusive: 27.3 µM [rising, single point]"
same,Potency,[2],"inconclusive: 6.86 µM [rising, single point]"
same,Potency,[5],"inconclusive: 389 nM [activator, full curve, poor fit]"
same,Potency,[8],active: 1.93 µM
same,Potency,[9],active: 38.6 µM
same,Potency,Aromatase (Homo sapiens),"inconclusive: 54.5 µM [inhibitor, partial curve]"
same,Potency,[15],"inconclusive: 27.3 µM [activator, partial curve, poor fit]"
same,"ratio activity, negative = inhibition",[13],inconclusive: -12.8%
N#Cc1c[nH]cc1-c1cccc2c1OC(F)(F)O2,Potency,[1],"inconclusive: 61.1 µM [cytotoxic, partial curve, poor fit]"
same,Potency,[2],active: 27.3 µM
same,activation,[4],inconclusive: -7.62% [phenotype inactive]
same,Potency,[5],active: 13800 nM [inhibitor]
same,Potency,[7],active: 17.4 µM [inconclusive]
same,Potency,[9],active: 48.6 µM
same,Potency,[13],"inconclusive: 19.5 µM [inhibitor, partial curve]"
O=[N+]([O-])c1c(Cl)c(Cl)cc(Cl)c1Cl,Potency,[1],"inconclusive: 0.0027 µM [rising, full curve, poor fit]"
same,Potency,[2],"inconclusive: 30.6 µM [falling, full curve, poor fit]"
same,Potency,[6],"inconclusive: 21.9 µM [rising, partial curve]"
same,Potency,[7],inconclusive: 1.55 µM [full curve]
same,Potency,[8],"inconclusive: 0.486 µM [activator, full curve]"
same,Potency,[10],"inconclusive: 27.3 µM [cytotoxic, single point]"
same,Potency,Aromatase (Homo sapiens),"inconclusive: 27.3 µM [inhibitor, partial curve]"
same,Potency,[13],inconclusive: 15.5 µM
CN1CSC(=S)N(C)C1,Potency,[1],"inconclusive: 13.6 µM [cytotoxic, partial curve] and active: 24.3 µM"
same,Potency,[2],inconclusive: 4.83 µM [cytotoxic]
same,activation,[4],inconclusive: -0.121% [phenotype inactive]
same,Potency,[5],"inconclusive: 54.7 µM and inconclusive: 10.9 µM [inhibitor, full curve]"
same,Potency,[7],inactive
same,Potency,[8],"inconclusive: 8.59 µM [inhibitor, full curve]"
same,Potency,[11],active: 10.8 µM and active: 27.2 µM
same,Potency,[14],"inconclusive: 15.3 µM [falling, full curve] and inconclusive: 6.09 µM [falling, full curve]"
same,Potency,[12],"inconclusive: 6.88 µM [activator, partial curve]"
same,Potency,[13],inactive
CC(C)(c1ccccc1)c1ccc(O)c(C(C)(C)c2ccccc2)c1,Potency,[1],"inconclusive: 68 µM [cytotoxic, single point] and inconclusive: 68.6 µM [cytotoxic, single point]"
same,Potency,[2],active: 13.6 µM and active: 12.2 µM
same,Potency,[4],"active: 1.52 µM and inconclusive: 2.17 µM [activator, partial curve]"
same,Potency,[6],"inconclusive: 54.4 µM [cytotoxic, single point] and active: 54.9 µM"
same,Potency,[8],"inconclusive: 60.6 µM [inhibitor, partial curve] and inconclusive: 68.6 µM [inhibitor, single point]"
same,Potency,[9],"inconclusive: 68 µM [falling, single point] and inconclusive: 68.6 µM [falling, single point]"
same,Potency,[10],active: 60.6 µM
same,Potency,[11],"active: 48.1 µM and inconclusive: 68.6 µM [cytotoxic, single point]"
